Results from PMC3897721, “Structure of Utp21 Tandem WD Domain Provides Insight into the Organization of the UTPB Complex Involved in Ribosome Synthesis” (PLoS ONE, 2014).
No constants are given. Whether binding was seen depends on the method and setting. Sequences can lack the tags named with a protein.

Legend:
[1] = biological target: T1, His6-Smt3-Utp18 183–594 (yeast (S. cerevisiae)) (UniProt P40362); assay: condition: 0.95 nmol Utp18 fragment, 1.9 nmol Utp21 1–684; pull-down; His6-Smt3-tagged Utp18 fragments (0.95 nmol) incubated with Utp21 1–684 (1.9 nmol) 2 h at 4°C, bound to Ni Sepharose beads; washed with 25 mM Tris-HCl pH 7.6, 500 mM NaCl, 10 mM imidazole; SDS-PAGE, Coomassie; both purified
T1 sequence: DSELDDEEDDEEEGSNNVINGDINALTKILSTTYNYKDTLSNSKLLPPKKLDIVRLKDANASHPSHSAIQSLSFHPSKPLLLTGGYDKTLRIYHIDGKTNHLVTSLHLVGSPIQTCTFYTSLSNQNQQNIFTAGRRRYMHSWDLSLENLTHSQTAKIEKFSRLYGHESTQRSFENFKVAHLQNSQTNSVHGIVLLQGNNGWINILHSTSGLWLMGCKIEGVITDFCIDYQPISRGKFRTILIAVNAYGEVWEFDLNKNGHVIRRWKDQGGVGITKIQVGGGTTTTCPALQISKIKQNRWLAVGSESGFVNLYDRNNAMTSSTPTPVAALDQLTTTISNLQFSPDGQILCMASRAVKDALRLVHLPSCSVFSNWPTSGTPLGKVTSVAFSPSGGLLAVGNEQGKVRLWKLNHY

[2] = biological target: T2, His6-Smt3-Utp18 1–100 (yeast (S. cerevisiae)) (UniProt P40362); assay: as above
T2 sequence: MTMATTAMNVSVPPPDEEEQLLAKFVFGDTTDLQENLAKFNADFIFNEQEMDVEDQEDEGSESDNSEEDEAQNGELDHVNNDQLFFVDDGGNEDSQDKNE

- binding [1]: no binding
- binding [2]: no binding
B1: Utp21 1–684 (tandem WD domain, GST-tag cleaved) (domain or fragment, UniProt Q06078 1-684)
chain: MSIDLKKRKVEEDVRSRGKNSKIFSPFRIIGNVSNGVPFATGTLGSTFYIVTCVGKTFQIYDANTLHLLFVSEKETPSSIVALSAHFHYVYAAYENKVGIYKRGIEEHLLELETDANVEHLCIFGDYLCASTDDNSIFIYKKSDPQDKYPSEFYTKLTVTEIQGGEIVSLQHLATYLNKLTVVTKSNVLLFNVRTGKLVFTSNEFPDQITTAEPAPVLDIIALGTVTGEVIMFNMRKGKRIRTIKIPQSRISSLSFRTDGSSHLSVGTSSGDLIFYDLDRRSRIHVLKNIHRESYGGVTQATFLNGQPIIVTSGGDNSLKEYVFDPSLSQGSGDVVVQPPRYLRSRGGHSQPPSYIAFADSQSHFMLSASKDRSLWSFSLRKDAQSQEMSQRLHKKQDGGRVGGSTIKSKFPEIVALAIENARIGEWENIITAHKDEKFARTWDMRNKRVGRWTFDTTDDGFVKSVAMSQCGNFGFIGSSNGSITIYNMQSGILRKKYKLHKRAVTGISLDGMNRKMVSCGLDGIVGFYDFNKSTLLGKLKLDAPITAMVYHRSSDLFALALDDLSIVVIDAVTQRVVRQLWGHSNRITAFDFSPEGRWIVSASLDSTIRTWDLPTGGCIDGIIVDNVATNVKFSPNGDLLATTHVTGNGICIWTNRAQFKTVSTRTIDESEFARMALPSTSVR
